Measured values reported in PubChem BioAssay AID624417 (National Center for Advancing Translational Sciences (NCATS), 2012).
Out of some 410,000 compounds screened, about 6,400 (1.6%) were called active. Inconclusive results, whose numbers are uncertain, are shown with a selection of clear calls. Calls come from the whole dose curve; as a rule, active = well fitted inhibition curve with a large enough effect; inconclusive = small, poorly fitted or top-dose-only effect; inactive = no such curve, though single readings can be large or run the other way. Potencies of inconclusive entries are left out as doubtful fits.

Target: Glucagon-like peptide 1 receptor (Homo sapiens) (UniProt P43220)
Sequence of UniProt P43220 (P43220 whole entry, looked up): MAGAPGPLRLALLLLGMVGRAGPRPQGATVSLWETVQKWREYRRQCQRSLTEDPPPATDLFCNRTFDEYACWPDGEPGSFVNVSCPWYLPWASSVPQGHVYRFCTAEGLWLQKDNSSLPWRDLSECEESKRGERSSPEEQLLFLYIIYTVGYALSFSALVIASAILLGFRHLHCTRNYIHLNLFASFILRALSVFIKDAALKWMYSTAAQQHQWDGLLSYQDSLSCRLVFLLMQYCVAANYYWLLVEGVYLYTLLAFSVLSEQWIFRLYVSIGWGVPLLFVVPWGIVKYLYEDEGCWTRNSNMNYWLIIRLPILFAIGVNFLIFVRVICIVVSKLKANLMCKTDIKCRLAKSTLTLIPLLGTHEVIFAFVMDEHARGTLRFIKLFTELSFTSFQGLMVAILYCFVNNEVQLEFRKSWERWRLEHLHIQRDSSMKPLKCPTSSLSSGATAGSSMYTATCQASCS
Assay: qHTS of GLP-1 Receptor Inverse Agonists (Inhibition Mode); note: nearly all actives have a fitted effect of over 55% in size
Conditions: HEK293 GLP-1R CRE-luciferase, luminescence, 24 h, GLP-1R form is constitutively active; activity change, negative = inhibition: at 38.3 µM (top of the series) unless noted
Method in brief: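 Readout was luciferase luminescence, measured 12 min after detection reagent at room temperature. Beforehand, GLP-1R reporter HEK293 cells had sat 12 h, then received compounds for 24 hr at 37 deg C.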
% is set by controls: 0 for no effect and ±100 for the full control effect; potency is the fitted concentration of half-maximal effect; tags give direction and shape of the fitted curve.

| Structure (SMILES) | Potency | activity change, negative = inhibition |
| --- | --- | --- |
| CCOc1ccc(Br)cc1C1C(C(=O)OC)=C(N)Oc2cc(N(C)C)ccc21 (configuration not stated) | inconclusive [inhibitor, full curve, poor fit] | – |
| O=C(C1CCN(CCCc2ccccc2)CC1)N(CCc1ccccc1)Cc1ccccc1 | active: 10 µM | – |
| CCn1c(CCNC(=O)c2ccc(OC)cc2)nnc1SCc1ccc(Cl)cc1Cl | inconclusive [inhibitor, single point] | – |
| CCOC(=O)CNc1c(-c2ccc(F)cc2)nc2cnccn12 | – | inactive: 0.0212% |
| O=C(COC(=O)CNC(=O)c1ccccc1)NC12CC3CC(CC(C3)C1)C2 | – | inactive: 6.29% |
| COc1ccc(-c2ccc(C(=O)Nc3ccc(OC)nc3)c3occc23)c(C)c1 | inconclusive [inhibitor, partial curve, poor fit] | – |
| c1ccc(-c2csc(Nc3cccnc3)n2)nc1 | – | inactive: 3.43% |
| Cc1ccc(S(=O)(=O)c2c(C)nn(C(C)(C)C)c2OC(=O)c2cccs2)cc1 | inconclusive [inhibitor, partial curve, poor fit] | – |
| O=C(CSc1nnc2c(Cl)cc(C(F)(F)F)cn12)N(Cc1ccccc1)Cc1ccccc1 | inconclusive [inhibitor, partial curve, poor fit] | – |
| O=C(Nc1cccc(Cl)c1)c1ccc(F)c(S(=O)(=O)N2CCC3(CC2)OCCO3)c1 | inconclusive [inhibitor, partial curve, poor fit] | – |
| Cc1ccc(-c2cc(C(=O)N/N=C/c3ccoc3)c3ccccc3n2)cc1 | inconclusive [inhibitor, single point] | – |
| CCN(C(=O)Cn1nnc2sc(-c3ccccc3)cc2c1=O)c1cccc(C)c1 | – | inactive: 5.52% |
| O=C(c1ccccc1)N1N=C(C(F)(F)F)CC1(O)c1ccccc1O (configuration not stated) | inconclusive [inhibitor, full curve, poor fit] | – |
| O=C(NCCOc1ccccc1)c1cc(C(=O)NCCOc2ccccc2)cc([N+](=O)[O-])c1 | inconclusive [inhibitor, partial curve, poor fit] | – |
| Cc1ccc(-n2c(O)c(C=Nc3cc(C)on3)c3ccccc3c2=O)c(C)c1 | inconclusive [inhibitor, partial curve, poor fit] | – |
| COc1ccccc1-c1cnn2c(NCCc3ccccc3)cc(C)nc12 | inconclusive [inhibitor, partial curve, poor fit] | – |
| Cc1ccc(C(=O)Nc2ccc(C)c(S(=O)(=O)N3CCOCC3)c2)c(C)c1 | inconclusive [inhibitor, single point] | – |
| CC(C)n1c(CSCc2ccc(Cl)cc2Cl)n[nH]c1=S | – | inactive: -31.1% [at 7.66 µM] |
| Cc1ccccc1Cn1cccc1/C=C1/C(=N)N2C=CSC2=NC1=O | inconclusive [inhibitor, single point] | – |
| CC(Sc1nc(NCc2ccccc2)nc(N(C)C)n1)C(=O)Nc1ccccc1 (configuration not stated) | inconclusive [inhibitor, single point] | – |
| COc1ccc(-c2noc(CNS(=O)(=O)c3ccc(Br)cc3)n2)cc1OC | – | inactive: -9.55% |

| Structure (SMILES) | Potency | activity change, negative = inhibition |
| --- | --- | --- |
| CCCCNC(=O)CN1CCN(Cc2ccc3cc(OC)ccc3c2)CC1 | inconclusive [inhibitor, partial curve, poor fit] | – |
| N#C/C(=C\c1ccc(Sc2ccccc2)o1)c1nc2ccccc2[nH]1 | inconclusive [inhibitor, full curve] | – |
| COc1ccccc1C(c1nnnn1Cc1ccco1)N1CCN(c2cccc(C)c2C)CC1 (configuration not stated) | inconclusive [inhibitor, partial curve, poor fit] | – |
| CC(C)NC(=O)C1CCN(Cc2cccc(OCc3ccccc3)c2)CC1 | inconclusive [inhibitor, single point] | – |
| Cc1ccc(-c2noc(CN(C(=O)COc3cc(C)cc(C)c3C)C(C)C)n2)cc1 | inconclusive [inhibitor, single point] | – |
| Cc1noc(C(=O)N2CC3(C)CC2CC(C)(C)C3)c1Cl (configuration not stated) | inconclusive [inhibitor, single point] | – |
| O=C(c1ccc(Br)o1)N1CCN(CCOc2ccccc2)CC1 | inconclusive [inhibitor, single point] | – |
| Cc1ccc(-c2nc3cccnc3o2)cc1NC(=O)COc1ccc(C(C)(C)C)cc1 | inconclusive [inhibitor, single point] | – |
| CCOc1ccc(N(C)Cc2cc(=O)oc3ccc(OC)cc23)cc1 | inconclusive [inhibitor, single point] | – |
| Cc1ccc(CNCc2c(C(=O)O)n(Cc3ccc(C)cc3)c3cc(C)ccc23)cc1 | inconclusive [inhibitor, single point] | – |
| O=C(NC1CCCCC1)c1cc2ccccc2cc1O | inconclusive [inhibitor, single point] | – |
| COCCNC(=O)C1CCCN(Cc2ccc(C(C)C)cc2)CC1 (configuration not stated) | inconclusive [inhibitor, single point] | – |
| Cc1ccc(S(=O)(=O)N(C)C)cc1NC(=S)NC(C)CCCC(C)C (configuration not stated) | inconclusive [inhibitor, partial curve, poor fit] | – |
| C[C@H](NC(=O)c1nc[nH]c1C(=O)NC(c1ccccc1)c1ccccc1)C(=O)OCc1ccccc1 | inconclusive [inhibitor, partial curve, poor fit] | – |
| COc1ccccc1CNC(=O)CN(CCc1ccccc1)S(C)(=O)=O | inconclusive [inhibitor, full curve, poor fit] | – |
| CCOc1ccc(-n2c(-c3ccccc3)c[nH]c2=S)cc1 | inconclusive [inhibitor, single point] | – |
| CCN(CC)CCNC(=O)c1ccc(Cl)c(S(=O)(=O)N2CCCCCC2)c1 | active: 2.51 µM | – |
| O=c1ccc(-c2ccccc2)nn1Cc1ccc(F)cc1 | inconclusive [inhibitor, single point] | – |
| Cc1cc(C)cc(NC(=O)CSc2nnc(-c3cc4occc4n3C)n2-c2ccccc2C)c1 | inconclusive [inhibitor, single point] | – |
| O=C(OCC(=O)N1CCCC1)c1ccc(S(=O)(=O)Nc2ccccc2)cc1 | inconclusive [inhibitor, partial curve, poor fit] | – |
| Cc1ccc(Cl)cc1N1CCN(C(=O)c2ccccc2SCC(=O)N2CCCC2)CC1 | inconclusive [inhibitor, single point] | – |

| Structure (SMILES) | Potency | activity change, negative = inhibition |
| --- | --- | --- |
| CCCCn1c(N)c(C(=S)NC(=O)CC(C)(C)C)c(=O)n(C)c1=O | inconclusive [inhibitor, single point] | – |
| COc1ccc(CCNC2=C(Cl)C(=O)N(CCc3ccc(OC)c(OC)c3)C2=O)cc1OC | – | inactive: 1.47% |
| Cc1ccc(C)c(CN2C(=O)NC3(CCCCCC3)C2=O)c1 | inconclusive [inhibitor, partial curve, poor fit] | – |
| Cc1cc(C)c(NC(=O)c2ncoc2-c2ccco2)c(C)c1 | inconclusive [inhibitor, single point] | – |
| COc1ccccc1N1CCN(S(=O)(=O)c2ccc3nc(-c4ccccc4)[nH]c3c2)CC1 | inconclusive [inhibitor, single point] | – |
| CCOc1ccc(-c2nc(CSCC(=O)NCc3ccco3)c(C)o2)cc1 | inconclusive [inhibitor, partial curve, poor fit] | – |
| CCOC(=O)c1sc(NC(=O)Nc2ccccc2)cc1C | inconclusive [inhibitor, partial curve, poor fit] | – |
| Cc1c(-c2ccccc2)nc2ccccc2c1C(=O)NCc1cccs1 | inconclusive [inhibitor, partial curve, poor fit] | – |
| O=C1Nc2ccc([N+](=O)[O-])cc2OC1CCN1CCOCC1 (configuration not stated) | – | inactive: -37.2% |
| O=C(Oc1ccccc1)c1cccc2cccc(C(=O)Oc3ccccc3)c12 | active: 10 µM | – |
| Cc1nc2cc(NC(=O)COc3ccc(C#N)cc3)ccc2n1-c1ccccc1 | inconclusive [inhibitor, partial curve, poor fit] | – |
| COc1ccc(/C=C/C(=O)c2ccc3ccccc3c2O)cc1CN1CCOCC1 | inconclusive [inhibitor, partial curve, poor fit] | – |
| CC(C)c1ccc(S(=O)(=O)N2CCN(C(=O)c3cccc(S(=O)(=O)N4CCOCC4)c3)CC2)cc1 | inconclusive [inhibitor, single point] | – |
| CC(C)Sc1nc2sc3c(c2c2nnc(SCC(=O)NCc4ccco4)n12)CCCC3 | inconclusive [inhibitor, full curve] | – |
| O=C(N/N=C/c1sc(N2CCCCC2)nc1-c1cccs1)c1cccnc1 | inconclusive [inhibitor, single point] | – |
| Cc1ccccc1CCNC(=O)c1ccc(Cl)c(S(=O)(=O)N2CC(C)OC(C)C2)c1 (configuration not stated) | inconclusive [inhibitor, partial curve, poor fit] | – |
| CCOC(=O)C1=CCN(S(=O)(=O)c2ccccc2C)C1c1ccc(Cl)c(Cl)c1 (configuration not stated) | inconclusive [inhibitor, single point] | – |
| COc1cccc(CN(C)S(=O)(=O)c2ccc3c(c2)OCCO3)c1 | inconclusive [inhibitor, partial curve] | – |
| S=C(NCc1ccccc1)Nc1ccncc1 | – | inactive: -24.1% |
| CC(OC(=O)c1ccccc1NS(=O)(=O)c1cccc(C(F)(F)F)c1)C(=O)N(C)Cc1ccccc1 (configuration not stated) | inconclusive [inhibitor, partial curve, poor fit] | – |
